Test results taken from the supplement of paper PMC4967469.
The IC50 comes from the fitted curve, where viability falls to half of the control; fits outside the tested doses are given as limits. The AUC spans the tested range (256-fold, ending at the top dose) of the same fit; the more sensitive the line, the further below 1. The top dose, if marked as inferred, comes from the curve model; the source does not state it.

Key:
Experiment in all cases: Viability of human cancer cell lines after 72 h of drug (GDSC screen)
NG-25 = compound: CCN1CCN(Cc2ccc(NC(=O)c3ccc(C)c(Oc4ccnc5[nH]ccc45)c3)cc2C(F)(F)F)CC1 [NG-25]; conditions: top dose 10.24 µM; top dose inferred
Protocol: (§1)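 Human cancer cell lines in 384-well plates, medium with 10% serum, drug for 72 h over a 256-fold dose range (nine 2-fold or five 4-fold steps up to the top dose). Adherent lines were fixed and stained with the nucleic acid dye Syto60, suspension lines read with resazurin; signal relative to control wells, capped at 0 and 100%. One two-parameter sigmoid per drug and line, fitted in a mixed model over all curves with the slope shared within a line.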

GSK-1904529A = compound: CCc1cc(Nc2nccc(-c3c(-c4ccc(OC)c(C(=O)Nc5c(F)cccc5F)c4)nc4ccccn34)n2)c(OC)cc1N1CCC(N2CCN(S(C)(=O)=O)CC2)CC1 [GSK-1904529A]; conditions: top dose 1.024 µM; top dose inferred
Protocol: as §1

BMS-509744 = compound: COc1cc(C)c(Sc2cnc(NC(=O)c3ccc(CNC(C)C(C)(C)C)cc3)s2)cc1C(=O)N1CCN(C(C)=O)CC1 [BMS-509744]; conditions: top dose 10.24 µM; top dose inferred
Protocol: as §1

PFI-1 = compound: COc1ccccc1S(=O)(=O)Nc1ccc2c(c1)CN(C)C(=O)N2 [PFI-1]; conditions: top dose 10 µM; top dose inferred
Protocol: as §1

Tipifarnib = compound: Cn1cncc1[C@@](N)(c1ccc(Cl)cc1)c1ccc2c(c1)c(-c1cccc(Cl)c1)cc(=O)n2C [Tipifarnib]; conditions: top dose 16 µM; top dose inferred
Protocol: as §1

| Cell Line | AUC (NG-25) | IC50 (NG-25) [µM] | AUC (GSK-1904529A) | IC50 (GSK-1904529A) [µM] | AUC (BMS-509744) | IC50 (BMS-509744) [µM] | AUC (PFI-1) | IC50 (PFI-1) [µM] | AUC (Tipifarnib) | IC50 (Tipifarnib) [µM] |
| --- | --- | --- | --- | --- | --- | --- | --- | --- | --- | --- |
| Farage (B-cell lymphoma, suspension) | 0.363 | 0.289 | 0.992 | > 1.02 | 0.955 | > 10.2 | 0.992 | > 10 | 0.781 | 5.41 |
| NCI-H1975 (lung adenocarcinoma, adherent) | 0.925 | > 10.2 | 0.98 | > 1.02 | 0.774 | 4.6 | 0.924 | > 10 | 0.532 | 1.24 |
| ES4 (Ewing sarcoma, adherent) | 0.78 | 4.87 | 0.981 | > 1.02 | 0.813 | – | 0.87 | > 10 | 0.486 | 0.913 |
| SW962 (urogenital system, adherent) | 0.814 | 7.36 | 0.958 | > 1.02 | 0.824 | – | 0.63 | 1.56 | 0.599 | 2 |
| TGW (neuroblastoma, adherent) | 0.801 | 4.21 | 0.992 | > 1.02 | 0.911 | > 10.2 | 0.975 | > 10 | 0.847 | 9.39 |
| TE-11 (oesophagus, adherent) | 0.987 | > 10.2 | 0.988 | > 1.02 | 0.858 | 7.25 | 0.9 | > 10 | 0.598 | 1.81 |
| JiyoyeP-2003 (Burkitt lymphoma, suspension) | 0.721 | 2.46 | 0.991 | > 1.02 | 0.972 | > 10.2 | 0.88 | 8.17 | 0.735 | 4.22 |
| ES7 (Ewing sarcoma, adherent) | 0.73 | 2.96 | 0.915 | > 1.02 | 0.92 | > 10.2 | 0.858 | 8.54 | 0.597 | 1.86 |
| KOPN-8 (B-cell leukaemia, suspension) | 0.756 | 3.06 | 0.99 | > 1.02 | 0.929 | > 10.2 | 0.878 | 7.73 | 0.767 | 5.16 |
| L-540 (Hodgkin lymphoma, suspension) | 0.869 | 7.72 | 0.99 | > 1.02 | 0.915 | > 10.2 | 0.766 | 3.3 | 0.733 | 4.22 |
| NB-4 (acute myeloid leukaemia, suspension) | 0.73 | 2.48 | 0.985 | > 1.02 | 0.988 | > 10.2 | 0.663 | 1.61 | 0.158 | 0.119 |
| ES-2 (ovary, adherent) | 0.593 | 1.11 | 0.991 | > 1.02 | 0.984 | > 10.2 | 0.99 | > 10 | 0.986 | > 16 |
| HCC1187 (breast, suspension) | 0.91 | > 10.2 | 0.988 | > 1.02 | 0.969 | > 10.2 | 0.914 | > 10 | 0.755 | 5.18 |
| NCI-H211 (small cell lung carcinoma, adherent) | 0.848 | 7.28 | 0.985 | > 1.02 | 0.906 | > 10.2 | 0.867 | 8.6 | 0.563 | 1.48 |
| VA-ES-BJ (soft tissue, adherent) | 0.87 | > 10.2 | 0.985 | > 1.02 | 0.923 | > 10.2 | 0.618 | 1.34 | 0.604 | 1.96 |
| GRANTA-519 (B-cell lymphoma, suspension) | 0.844 | 6.28 | 0.991 | > 1.02 | 0.987 | > 10.2 | 0.963 | > 10 | 0.868 | 12.2 |
| NCI-H716 (large intestine, suspension) | 0.527 | 0.775 | 0.981 | > 1.02 | 0.943 | > 10.2 | 0.794 | 5.97 | 0.938 | > 16 |
| DMS-114 (small cell lung carcinoma, adherent) | 0.922 | > 10.2 | 0.984 | > 1.02 | 0.951 | > 10.2 | 0.841 | 8.55 | 0.897 | > 16 |
| COR-L88 (small cell lung carcinoma, adherent) | 0.925 | > 10.2 | 0.977 | > 1.02 | 0.978 | > 10.2 | 0.938 | > 10 | 0.858 | > 16 |
| CTB-1 (B-cell lymphoma, suspension) | 0.74 | 4.08 | 0.979 | > 1.02 | 0.884 | > 10.2 | 0.825 | 9.21 | 0.707 | 4.82 |
| SU-DHL-8 (B-cell lymphoma, suspension) | 0.768 | 3.59 | 0.981 | > 1.02 | 0.914 | > 10.2 | 0.807 | 4.72 | 0.452 | 0.749 |
| A388 (skin, adherent) | 0.928 | > 10.2 | 0.972 | > 1.02 | 0.937 | > 10.2 | 0.876 | > 10 | 0.483 | 0.896 |
